In PubChem BioAssay AID485344 (National Center for Advancing Translational Sciences (NCATS), 2010):
The campaign covered roughly 340,000 compounds. About 6,900 (2%) were called active. Rule as the data show it: active = inhibition above about 30%; inactive = below that, where a call was filed. This is a selection; strong and weak results do not stand in their true shares. Entries without a call were filed so in the source.

These compounds were tested against D(2) dopamine receptor (Homo sapiens) (UniProt P14416) (assay: HTS Assay for Allosteric Antagonists of the Human D2 Dopamine Receptor: Primary Screen for Antagonists). Settings: HEK293 TREx D2 cells, calcium flux, dopamine EC80; at 10 µM; stronger effect = higher value.
UniProt P14416, sequence (P14416 whole entry, looked up): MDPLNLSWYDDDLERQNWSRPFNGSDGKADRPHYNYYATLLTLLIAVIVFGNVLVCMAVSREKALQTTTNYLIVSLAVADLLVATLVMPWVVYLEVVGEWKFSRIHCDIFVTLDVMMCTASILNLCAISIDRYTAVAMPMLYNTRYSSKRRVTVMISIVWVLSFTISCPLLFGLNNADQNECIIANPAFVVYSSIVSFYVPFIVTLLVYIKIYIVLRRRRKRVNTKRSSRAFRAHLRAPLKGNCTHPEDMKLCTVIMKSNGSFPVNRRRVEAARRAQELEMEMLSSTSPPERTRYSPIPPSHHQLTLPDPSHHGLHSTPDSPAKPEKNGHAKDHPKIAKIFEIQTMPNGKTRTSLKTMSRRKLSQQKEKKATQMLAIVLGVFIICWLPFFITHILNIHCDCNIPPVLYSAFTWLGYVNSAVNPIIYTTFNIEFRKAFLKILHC
Method in brief: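 Calcium flux kinetic readout in an inducible HEK293 TREx D2 line plated overnight at 30 C. After 180 s compound exposure, an EC80 dopamine challenge follows with another 180 s kinetic read to detect antagonism.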
Also: 0% is about no effect.

Row | SMILES | inhibition
1 | O=C(NC1CCCCC1)c1ccc2c(c1)N(Cc1cccc(F)c1)C(=O)c1ccccc1S2 | 11.9%
2 | O=C(NC1CCCCC1)c1ccc2c(c1)sc1nc(-c3ccc(F)cc3)cn12 | 8.62%
3 | CN(C1CCCCC1)S(=O)(=O)c1cccc2nsnc12 | active: 31.6%
4 | Cc1ccc(Nc2cc(C)nc(-n3nc(C)cc3C)n2)cc1 | 16%
5 | O=C(Nc1ccc(OC(F)(F)F)cc1)C1CCN(S(=O)(=O)c2ccc3[nH]c(=O)ccc3c2)CC1 | -2.8%
6 | Cc1ccc(NC(=O)CSc2nc3ccc(Br)cc3[nH]2)c(C)c1 | 20%
7 | Cc1ccc(N2CC(C(=O)NCCS(=O)(=O)N3CCN(c4ccccc4F)CC3)CC2=O)cc1 (stereo not given) | -10.9%
8 | CC1CCN(C(=O)CSc2c3c(nc4ccc(Cl)cc24)CCCC3)CC1 | -0.455%
9 | CC1=C(c2ccc(C(C)C)cc2)S(=O)(=O)NC1=NCc1ccccc1C | 5.53%
10 | Cc1cccc(NC(=O)CSc2nc3ccccc3nc2N2CCC(C)CC2)c1 | 11%
11 | CCOc1ccc(N(Cc2ccccc2)C(=O)c2nc(SCC)ncc2Cl)cc1 | -7.32%
12 | Cc1nc2c3ccccc3nc(NNC(=O)CCC(=O)N3CCN(c4cccc(Cl)c4)CC3)n2n1 | 2.45%
13 | O=C(COc1ccc(F)cc1)Nc1nnc(S(=O)(=O)N2CCc3ccccc32)s1 | -1.32%
14 | COc1ccc(S(=O)(=O)N(CC(=O)Nc2ccc(F)c(Cl)c2)c2ccc(C)cc2)cc1OC | -14.6%
15 | Cc1ccc(NC(=O)Cn2c(=O)n(CC3CCC(C(=O)NC(C)C)CC3)c(=O)c3sccc32)cc1 (stereo not given) | -1.22%
16 | COc1ccc(-c2nc(C)c(CCNC(=O)C(=O)Nc3ccccc3F)s2)cc1 | 12.9%
17 | COc1ccccc1-n1nc(-c2ccccc2)c2cnc3c(F)cc(F)cc3c21 | 24.6%
18 | COc1ccc(C(CNC(=O)COc2cc(C)cc(C)c2)N2CCCCC2)cc1 (stereo not given) | -20.8%
19 | COc1ccc(CCN2CCC(CNC(=O)c3cnn(-c4ccc(C)cc4)c3C3CCN(C(=O)OC(C)(C)C)CC3)CC2)cc1 | 7.98%
20 | COc1cc(C(=O)N2CCN(CCc3ccncc3)CC2)cc(OC)c1OC | 10.4%

Row | SMILES | inhibition
21 | COc1cccc(-n2c(=O)c3c(C)c(C(=O)N(C)C)sc3n(Cc3cccc(C)c3)c2=O)c1 | 3.71%
22 | Cc1cccc(N(C)S(=O)(=O)c2ccc(-c3cc(C)no3)s2)c1 | -19.8%
23 | CCc1sc(Nc2cccc(C)c2)nc1-c1cc2cccc(OC)c2oc1=O | -13.9%
24 | CC(=O)N1CCc2c(sc3c2c(=O)n(-c2ccc(F)cc2)c(=O)n3Cc2cc(C)ccc2C)C1 | -6.33%
25 | Cc1ccc(S(=O)(=O)N2CCc3cc(C(=O)N(C)Cc4ccccc4)ccc32)cc1 | 26%
26 | COc1ccc(-c2noc(-c3ccc(N4CCN(C)CC4)c([N+](=O)[O-])c3)n2)cc1 | 6.68%
27 | COc1ccc(S(=O)(=O)c2c(O)c(C)cc(NS(=O)(=O)c3ccc(Cl)cc3)c2C(C)C)cc1 | 10%
28 | COc1ccc(C2CC(=O)N(Cc3ccccc3C)c3c2c(C)nn3-c2nc(C)cc(C)n2)c(OC)c1 (stereo not given) | 12%
29 | COc1ccc(NC(=O)CSC2=Nc3ccccc3C3=NC(CC(=O)NCc4ccccc4OC)C(=O)N23)cc1Cl (stereo not given) | -6.67%
30 | Cc1ccccc1-n1c(SCC(=O)Nc2ccc(Cl)cc2Cl)nc(O)cc1=O | 16.2%
31 | CC(C)(C)c1ccc(-c2nc(SCCOc3ccc(Cl)cc3)n3[nH]c(=O)cc3n2)cc1 | -1.76%
32 | O=C(CSc1ncc2c(n1)-c1cc(Cl)ccc1N(Cc1ccccc1)S2(=O)=O)Nc1ccc(F)cc1F | 0.176%
33 | O=C(CCSCc1cccc(Cl)c1)NCc1ccccc1Cl | -5.67%
34 | O=c1c(N2CCN(c3ccccc3)CC2)csc2ccc(Cl)cc12 | 3.55%
35 | CC(C)Oc1ccc(C(=O)N2CCN(c3nc4c(F)cc(F)cc4s3)CC2)cc1 | -9.59%
36 | CCN1c2ccccc2-n2cccc2C12CCN(C(=O)Nc1ccccc1Br)CC2 | -8.66%
37 | CC1CCCN(c2ncnc3c2cnn3-c2ccc(F)cc2)C1 (stereo not given) | -6.08%
38 | CCCCn1cc(S(=O)(=O)c2ccccc2)c(=O)c2cc(F)c(N3CCN(CCC)CC3)cc21 | 0.621%
39 | CCOCCn1ccc2c(OCC(=O)NCc3ccc(F)cc3)cccc2c1=O | 4.11%
40 | Cc1cc(C)cc(NC(=O)N2CCC(C(N)=O)(N3CCCCC3)CC2)c1 | -4.4%

Row | SMILES | inhibition
41 | COc1ccc(N(C)C(=O)c2nn(-c3ccc(C)cc3)c(=O)n(C)c2=O)c(OC)c1 | -15.3%
42 | CCOC(=O)N1CCC(NC(=O)c2cnn(-c3ccc(F)cc3)c2-n2cccc2)CC1 | -8.03%
43 | COc1ccc(N2CC(NC(=O)C(=O)c3c[nH]c4ccccc34)CC2=O)cc1 (stereo not given) | 3.9%
44 | CCN(CC)c1cc(C)c2cc(NC(=O)/C=C/c3ccccc3Cl)ccc2n1 | -3.49%
45 | COc1ccc(CNC(=O)CC(C)n2nc(C)cc2C)cc1 (stereo not given) | 3.58%
46 | Cc1ccc(-c2nn(-c3ccc(F)cc3F)c3c2cnc2ccc(F)cc23)cc1 | -26.8%
47 | CCOc1cc2[nH]c(=O)n(Cc3ccc(C(=O)N4CCN(c5ccccc5)CC4)cc3)c(=O)c2cc1OCC | 6.03%
48 | COc1cc2c(=O)n(Cc3ccco3)c(=O)n(CC(=O)Nc3ccc(F)cc3)c2cc1OC | -19.3%
49 | CSc1ncc(Cl)c(C(=O)Nc2cc(C(F)(F)F)ccc2Cl)n1 | -1.99%
50 | Cc1nc(-c2ccc(Cl)cc2)sc1CCNC(=O)C(=O)Nc1ccc2c(c1)OCCO2 | -23.2%
51 | O=C(O)c1ccc(NCc2nc3ccccc3n2CCOc2ccccc2Cl)cc1 | -15.4%
52 | O=C(CSc1nc(=O)n(Cc2cccnc2)c2c1CCC2)Nc1cccc(Cl)c1 | -10.4%
53 | CCc1cc(C(=O)OC)c(NC(=O)CC2SC(=NC)N(C)C2=O)s1 (stereo not given) | active: 63.4%
54 | COCCn1c(=O)[nH]c2cc(C(=O)N3CCN(c4ccc(Cl)cc4)CC3)ccc2c1=O | -4.84%
55 | CN(c1ccccc1C(=O)Nc1cccc(Cl)c1Cl)S(C)(=O)=O | active: 53.3%
56 | Cc1ccc(CN2CCC(CNC(=O)c3cnn(-c4ccccc4)c3C3CCN(C(=O)OC(C)(C)C)CC3)CC2)cc1 | 0.611%
57 | COc1ccc(NC(=O)c2cc(C(C)=O)n3ccccc23)cc1 | 1.07%
58 | COc1ccc(NC(=O)c2oc3ccc(S(=O)(=O)N4CCCCC4)cc3c2C)cc1Cl | 15.6%
59 | CN1CCN(c2nc(-c3ccccc3)cc(C(F)(F)F)n2)CC1 | active: 75.4%
60 | COc1ccccc1NC(=O)CSc1nnc(-c2nonc2NC(C)=O)n1-c1ccccc1 | 13%
